From PubChem BioAssay AID1508642 (National Center for Advancing Translational Sciences (NCATS), 2021)
The whole screen tested about 43,000 compounds, of which about 200 (0.47%) were called active. Roughly 12% stayed inconclusive and do not appear here. Calls follow the shape of the dose curve; as a rule, active = well fitted cell-killing curve with a large enough effect; inconclusive = small, poorly fitted or top-dose-only effect, or effect the other way; inactive = flat fitted curve, though single readings scatter. The list shows a part of the results.

assay: Cell viability qHTS assay in S16 Pmp22-F2sN cells; details: S16 Pmp22-F2sN Schwann cells viability, CellTiter-Glo, 24 h; series mostly up to 57.5 µM; activity change, negative = cytotoxicity: at the top concentration; also: nearly all actives have a fitted effect of over 65% in size
In short: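 Viability was measured by CellTiter-Glo luminescence (15 min, room temperature). This followed 24 h at 37 °C of compound exposure (23 nL pin transfer) in S16 Pmp22-F2sN Schwann cells, 500-1,000 per well.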
% is scaled to controls: 0 for no effect and ±100 for the full control effect.

| Compound | activity change, negative = cytotoxicity |
| --- | --- |
| COc1ccc(N2CC(NC(=O)C(c3ccccc3)c3ccccc3)CC2=O)cc1 (stereo not given) | inactive: -14.2% |
| COc1cccc(CNC(=O)c2ccc3c(c2)sc2nc(-c4cccc(OC)c4)cn23)c1 | inactive: -13.8% |
| Cc1nc2nc[nH]n2c(=O)c1NS(=O)(=O)c1ccc(Br)cc1 | inactive: -4.36% |
| Cc1ccc(Nc2ncnc3c2nc2n3CCCC2)cc1F | inactive: -0.238% |
| Cc1ccc2nc3c(cc(C(=O)NC4CCCC4)c(=N)n3C(C)C)c(=O)n2c1 | inactive: 14.5% |
| CCC(Nc1ccc(-c2nc(-c3cccnc3)no2)cc1[N+](=O)[O-])c1ccccc1 (stereo not given) | inactive: 12.4% |
| COc1ccc2[nH]cc(CCNC(=O)Nc3cc(C)cc(C)c3)c2c1 | inactive: 2.6% |
| O=c1c2cccnc2n(Cc2cccc(F)c2)c(=O)n1Cc1ccc(F)cc1 | inactive: 18.6% |
| CCOC(=O)c1c(-c2ccc(OC)c(OC)c2)csc1NC(=O)c1ccccc1F | inactive: 14.2% |
| COc1ccccc1Nc1nc(-c2ccccc2)c(CC(=O)O)s1 | inactive: -4.43% |
| COc1ccc2c(c1)c1c(c(=O)n(-c3cccc(C)c3)c(=O)n1CC(=O)NCCC1=CCCCC1)n2C | inactive: -6% |
| Cc1cccc(CNS(=O)(=O)c2ccc(-c3coc(C)n3)cc2)c1 | inactive: -3.41% |
| COc1ccc(S(=O)(=O)c2nnn(-c3cccc(Cl)c3)c2N)cc1 | inactive: 3.36% |
| COc1cc(CNC(=O)c2cnc3c(-c4cccc(C)c4)c(C)nn3c2C)cc(OC)c1OC | inactive: -0.463% |
| COc1ccc(-c2cc3ccc(O)c(CN4CCN(C)CC4)c3oc2=O)cc1OC | inactive: -4.32% |
| CCOCCOC(=O)c1ccc2c(c1)N(Cc1ccccc1C#N)C(=O)c1ccccc1S2(=O)=O | inactive: 0.112% |
| CCc1ccc(C(=O)COC(=O)C(NC(=O)C2CCC(C)CC2)C(C)C)cc1 (stereo not given) | inactive: 11.5% |
| Nc1cc(=O)nc(SCC(=O)Nc2ccccc2)n1CCc1ccccc1 | inactive: 20.2% |
| O=C(NC1CC(=O)N(c2ccc(Cl)cc2)C1)c1cc2ccccc2o1 (stereo not given) | inactive: 3.94% |
| CC(=O)Nc1ccc(Nc2ccc3cc(S(=O)(=O)N4CCCCC4)ccc3n2)cc1 | inactive: -26% |
| CCCc1ccc(OCC(=O)Nc2sc3c(c2C(=O)OCC)CCC(C(C)(C)C)C3)cc1 (stereo not given) | inactive: -0.69% |
| COc1ccc(N(CC(=O)NCCc2ccccc2)S(=O)(=O)c2c(C)nn(C)c2C)cc1 | inactive: 5.09% |
| COc1ccc(-n2c(=O)c3c4c(sc3n(Cc3ccccc3C)c2=O)CCCC4)c(OC)c1 | inactive: -6.17% |
| CCc1cccc(NC(=O)C(Cc2ccccc2)NS(=O)(=O)c2cccs2)c1 (stereo not given) | inactive: -29.5% |

| Compound | activity change, negative = cytotoxicity |
| --- | --- |
| CC(=O)c1ccc(Nc2cc(C)nc3nc(Cc4ccccc4)nn23)cc1 | inactive: -17% |
| CCC1(C)CC(=O)c2c(ccc3oc(C(=O)Nc4ccc(C(C)=O)cc4)c(C)c23)O1 (stereo not given) | inactive: 7.22% |
| CC(C)c1ccc(Nc2sc(C(=O)c3ccccc3)c(N)c2S(=O)(=O)c2ccccc2)cc1 | inactive: -16.8% |
| CCc1nc2ccc(C(=O)N3CCN(c4cccc(Cl)c4)CC3)cc2nc1CC | inactive: -12.4% |
| CC(C)CC(=O)Nc1nnc(S(=O)(=O)N2c3ccccc3CC2C)s1 (stereo not given) | inactive: 4.72% |
| CCOc1ccc(C(=O)NCCc2csc(-c3cccc(C)c3)n2)cc1 | inactive: 16.3% |
| Cc1ccc(N2CCN(C(=O)Cn3ncc4c([nH]c5ccc(C)cc54)c3=O)CC2)c(C)c1 | inactive: 9.92% |
| CCCn1c2ccccc2c2cnn(CC(=O)Nc3cc(OC)c(OC)c(OC)c3)c(=O)c21 | inactive: -2.99% |
| COc1cc2c(cc1OC)C(CC(=O)O)N(C(=O)Nc1cc(OC)c(OC)c(OC)c1)CC2 (stereo not given) | inactive: 9.84% |
| CCc1ccc(C2=NN(CCC(=O)NCCc3ccccc3)C(=O)CC2)cc1 | inactive: 12.4% |
| Cc1cc(C)c(/C=C/c2onc(C)c2S(=O)(=O)N2CCC(C(=O)Nc3cccc(C)c3C)CC2)c(C)c1 | inactive: 5.08% |
| COc1ccccc1-c1noc(CSc2nnc(-c3ccccc3)n2-c2ccc(C)c(C)c2)n1 | inactive: 0.344% |
| CCOC(=O)CNC(=O)Nc1cc(C(=O)NCc2ccc(C(C)C)cc2)ccc1N1CCCC1 | inactive: -0.75% |
| Cc1cc(OCC(=O)Nc2sc3c(c2C#N)CCC(C)C3)ccc1Cl (stereo not given) | inactive: -3.83% |
| Cc1ccc2[nH]c(=O)c3cc(C(=O)NCc4cccc(Cl)c4)sc3c2c1 | inactive: -4.66% |
| O=C(CSc1ncc(-c2ccc(Cl)cc2)[nH]1)Nc1ccccc1F | inactive: 2.38% |
| CCOc1ccc(C(=O)c2cn(Cc3cccc(OC)c3)c3cc4c(cc3c2=O)OCO4)cc1 | inactive: 5.17% |
| CC(=O)c1ccc(NC(=O)CSc2nc(-c3ccccc3C)nc3c2c(=O)n(C)c(=O)n3C)cc1 | inactive: 7.01% |
| CCOC(=O)c1c(C)oc2nc(C)nc(N(C)Cc3ccccc3)c12 | inactive: 0.868% |
| Cc1ccc(NC(=O)CCS(=O)(=O)c2ccc3nc(C)sc3c2)c(C)c1 | inactive: 2.06% |
| CCOc1ccc(CN2C(=O)c3ccccc3Sc3ccc(C(=O)NCCCN4CCOCC4)cc32)cc1 | inactive: 0.199% |
| COc1ccc(S(=O)(=O)NCc2ccc3c(c2)CCN3C(C)=O)cc1OC | inactive: 2.39% |
| COC(=O)c1ccc([C@H]2Nc3ccc(S(=O)(=O)Nc4ccc(F)cc4)cc3[C@H]3C=CC[C@H]32)cc1 | inactive: -2.94% |
| Cc1ccc(OCC(=O)N(Cc2nc(-c3ccccc3)no2)C(C)C)cc1C | inactive: -0.094% |

| Compound | activity change, negative = cytotoxicity |
| --- | --- |
| CN(C)c1ncc(C(=O)NCc2ccccc2Cl)cn1 | inactive: -5.19% |
| CCOc1ccc(S(=O)(=O)N(CC(=O)NCCc2ccc(OC)cc2)c2ccccc2)cc1 | inactive: 12.2% |
| COc1ccccc1N1CCN(c2c(CN3CCCC3)c(=O)oc3ccccc23)CC1 | inactive: 7.96% |
| Cc1ccc(NC(=O)CSc2nncn3c2cc2sccc23)cc1F | inactive: 7.7% |
| Cc1ccc(-n2c(=O)c3c(c4cc(C)ccc4n3C)n(CC(=O)NCC3CCCO3)c2=O)cc1 (stereo not given) | inactive: 0.778% |
| COc1cc(Cl)c(NC(=O)CC(C)S(=O)(=O)c2cc3c(cc2C)NC(=O)CO3)c(OC)c1 (stereo not given) | inactive: -6.65% |
| Cc1ccc(-c2nc3n(n2)C(=O)CC(c2ccc(C)cc2)S3)cc1 (stereo not given) | inactive: -0.739% |
| CC(C)c1ccc(NC(=O)c2cc(S(=O)(=O)N3CCc4ccccc4C3)ccc2F)cc1 | inactive: -3.6% |
| CCCCOC(=O)c1ccc(NC2=NS(=O)(=O)c3ccccc32)cc1 | inactive: 13.9% |
| CCOC(=O)c1c(C)oc2nc(C)nc(NCC3CCN(Cc4ccc(F)cc4)CC3)c12 | inactive: 24.6% |
| COc1ccc(CNc2ncnc3c2cnn3-c2ccc(Cl)cc2)cc1 | inactive: 9.14% |
| COc1cccc(-c2ccc3c(N)c(C(=O)c4ccc(F)cc4)sc3n2)c1 | inactive: 21.6% |
| CC(NC(=O)CCCN1C(=O)CCn2nc(-c3cn(C)c4ccccc34)cc21)c1ccccc1 (stereo not given) | inactive: -24.7% |
| Fc1ccc(-c2nc3c4c(-c5ccccc5)c(-c5ccccc5)oc4ncn3n2)cc1 | inactive: -8.97% |
| O=C(Nc1ccc(Cl)c(-c2nc3ccccc3o2)c1)c1cccc2c(Cl)cccc12 | inactive: 3.26% |
| Cc1ccc(CSC2=Nc3ccccc3C3=NC(CCC(=O)NCc4cccs4)C(=O)N23)c(C)c1 (stereo not given) | inactive: 3.68% |
| COc1ccc(Nc2ccc3cc(S(=O)(=O)N4CCCC4)ccc3n2)cc1OC | inactive: -12% |
| COc1ccccc1CNC(=O)CCCCn1c(=O)c2ccccc2n(Cc2ccccc2C)c1=O | inactive: -4.47% |
| Cc1cc(C)cc(C(=O)Nc2cccc(-c3nc4ncccc4o3)c2C)c1 | inactive: -1.5% |
| CC(C)(C)C1CCc2c(sc(NC(=O)c3ccccc3F)c2C(=O)NCc2ccco2)C1 (stereo not given) | inactive: -2.44% |
| CC(=O)c1c(C)n(-c2ccc(Cl)cc2)c2ccc(OC(=O)COc3ccccc3)cc12 | inactive: -16.6% |
| CC(=O)c1cccc(NC(=O)c2ccc(Cl)c(S(=O)(=O)N3CCOCC3)c2)c1 | inactive: 17.4% |
| COc1ccc(-c2nc3scc(CCNS(=O)(=O)c4c(C)cc(C)cc4C)n3n2)cc1OC | inactive: 1.07% |
| O=C(NCCn1cc(SCc2ccccc2)c2ccccc21)c1cccs1 | inactive: -8.86% |

| Compound | activity change, negative = cytotoxicity |
| --- | --- |
| CN(Cc1ccccc1)S(=O)(=O)c1nnc(NC(=O)c2ccccc2Cl)s1 | inactive: -8% |
| CCOC(=O)c1cc2c(=O)n3ccccc3nc2n(CCOC)c1=NC(=O)c1cc2ccccc2o1 | inactive: -2.97% |
| c1ccc(N2CCN(Cc3nnc(-c4ccc5c(c4)OCO5)o3)CC2)cc1 | inactive: 4.7% |
| COc1ccc(C2=NS(=O)(=O)N(C)C(C(=O)Nc3ccc(OC(F)(F)F)cc3)=C2)cc1 | inactive: -13.7% |
| CC(=O)c1cccc(NC(=O)CCc2nc3cccnc3n2Cc2cccs2)c1 | inactive: 6.68% |
| COc1ccc(-c2nc(Cn3c(=O)cc(-c4ccccc4)c4c(C)nn(C)c43)c(C)o2)cc1OC | inactive: -7.51% |
| CCOc1ccc(Nc2nc3c(S(=O)(=O)c4ccc(CC)cc4)nnn3c3ccc(Cl)cc23)cc1 | inactive: 1.85% |
| CC1CCN(S(=O)(=O)c2ccc3c(ccc(=O)n3CC(=O)NCc3ccc(Cl)cc3)c2)CC1 | inactive: -1.68% |
| COc1ccc(S(=O)(=O)N(CC(=O)Nc2cc(C)cc(C)c2)c2ccc(Cl)cc2)cc1 | inactive: 0.561% |
| CCn1c(C(=O)N2CCC(C(=O)N3CCN(c4ccc(OC)cc4)CC3)CC2)cc2sccc21 | inactive: -19.6% |
| COc1ccc(Cl)cc1N=C1NC(=O)CC(C(=O)Nc2ccccc2C(F)(F)F)S1 (stereo not given) | inactive: 6.97% |
| CCNc1nc(NC(C)(C)C)nc(Oc2ccc(=O)n(-c3ccccc3)n2)n1 | inactive: -1.03% |
| CC(C)Oc1ccc(CNC(=O)c2ccc3nc(C(C)C)oc3c2)cc1 | inactive: 1.03% |
| Cc1cc(C)cc(NC(=O)C(CC(C)C)NC(=O)C2CCCCC2)c1 (stereo not given) | inactive: 8.74% |
| CN(C)c1ccc(C(=O)Nc2c(C(=O)NC(C)(C)C)oc3ccccc23)cc1 | inactive: -3% |
| O=C(c1cccn1-c1nnc(N2CCCCC2)s1)N1CCN(c2ccc(Cl)cc2)CC1 | inactive: -6.54% |
| COc1ccc(CCNc2nc3ccc(C)cc3n3cnnc23)cc1OC | inactive: 16.1% |
| CCOC(=O)CSc1nc(-c2ccc(F)cc2)cc(C(F)(F)F)c1C#N | inactive: 1.43% |
| O=C(CSc1nc(-c2ccccc2)no1)N1CCN(c2ccccc2)CC1 | inactive: 14.6% |
| CCOc1ccccc1NC(=O)c1cc(S(=O)(=O)N2CCOCC2)cn1C | inactive: 12.2% |
| CCC(=O)N1c2ccccc2C(C)(c2ccccc2)CC1(C)C (stereo not given) | inactive: -1.21% |
| CN1CCN(C(=O)c2ccc3c(c2)N(Cc2ccc(F)cc2)C(=O)c2ccccc2S3=O)CC1 (stereo not given) | inactive: 18.5% |
| CC(C)(C)OC(=O)N1CCC(c2c(C(=O)NCc3ccccc3)cnn2-c2ccc(F)cc2)CC1 | inactive: 20.3% |
